# Experimental data as given in PubChem BioAssay AID686971 (National Center for Advancing Translational Sciences (NCATS), 2013).
# Screen size: about 360,000 compounds; about 7,500 (2.1%) were called active. The shares of active, inactive and inconclusive entries below differ from those in the screen. The call rests on the fitted dose curve; in most records, active means well fitted cell-killing curve with a large enough effect; inconclusive means small, poorly fitted or top-dose-only effect, or effect the other way, or another doubt; inactive means no such curve, though single readings can be large or run the other way. No potency is given beside an inconclusive call; the fits are too rough.
# Assay: qHTS for induction of synthetic lethality in tumor cells producing 2HG: qHTS for the HT-1080-IDH1KD cell line;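 on activity, negative = toxicity: 0% = DMSO wells and -100% = cell-free medium wells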
# Settings: HT-1080 IDH1 knockdown viability, ATP luminescence, 48 h; activity, negative = toxicity: at 46.1 µM (top of the series) unless noted
# Method in brief: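 After a 2 h attachment period, IDH1KD HT-1080 cells took pin-transferred compound for 48 h at 37 °C; ATP-based luminescence after 10 min room-temperature reagent incubation reported viability.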
# Potency means the concentration at half of the fitted maximal effect; tags describe the fitted curve by direction and shape.
Structure (SMILES),Potency,"activity, negative = toxicity"
CCN(CC)CCn1c2ccccc2c2cnc(N)c(C#N)c21,"inconclusive [cytotoxic, partial curve]",
CC1(C(=O)Nc2ccc(Cl)cc2)Cc2c(-c3ccc4c(c3)OCO4)ccnc2O1 (stereo not drawn),"inconclusive [cytotoxic, single point]",
O=C(CC1C(=O)NCCN1C(=O)Nc1ccc(Cl)cc1)Nc1ccc(F)cc1 (stereo not drawn),"inconclusive [cytotoxic, partial curve]",
CC1(O)CC(c2ccc(Cl)cc2)=NN1C(=O)c1ccc([N+](=O)[O-])cc1 (stereo not drawn),active: 16.4 µM,
O=[N+]([O-])c1ccc(O)c(/C=N/Nc2ccccc2Cl)c1,,inconclusive: -29.7% [cytotoxic]
CCCOc1ccccc1-n1sc2c(c1=S)-c1cc(OC)cc3c1N(C(=O)C3=O)C2(C)C,"inconclusive [cytotoxic, single point]",
Cc1cccn2c(=O)c3cc(C(=O)NCCc4ccccc4)c(=N)n(Cc4ccco4)c3nc12,active: 5.17 µM,
CCN1C(=O)c2cccc3c(S(=O)(=O)Nc4ncccc4C)ccc1c23,"inconclusive [cytotoxic, partial curve, poor fit]",
COCCNC(=O)C(=O)N/N=C/c1ccccc1C(F)(F)F,inactive,
Clc1ccc(Cn2cc(/C=N/n3cnnc3)c3ccccc32)c(Cl)c1,"inconclusive [cytotoxic, single point]",
CC(=NNC(=S)Nc1ccccc1Cl)c1ccccn1,"inconclusive [cytotoxic, full curve]",
CN(C)c1ccc(CN2CCC(C(=O)NC(c3ccc(F)cc3)c3ccc4ccccc4n3)CC2)cc1 (stereo not drawn),"inconclusive [cytotoxic, single point]",
CC(C)C[C@@H](CN1CCC[C@@H]1CN1C(=S)NC[C@@H]1Cc1ccc(O)cc1)N1C[C@H](Cc2ccc(O)cc2)N(CCc2ccccc2)C1=S,"inconclusive [cytotoxic, single point]",
CN(C)c1cccc(NC(=O)C2Cc3c(-c4ccccc4Oc4ccccc4)ccnc3O2)c1 (stereo not drawn),"inconclusive [cytotoxic, single point]",
COc1ccccc1-n1cnc2cc(C(=O)N3CCOCC3)ccc21,inactive,
CCOc1cccc2sc(N(CCCN(C)C)C(=O)c3ccc(S(=O)(=O)N(CC)Cc4ccccc4)cc3)nc12,active: 23.1 µM,
O=C(NCc1ccccc1)c1noc2c1CCCCC2,"inconclusive [cytotoxic, single point]",
CCN(CC(=O)Nc1ccc(OC)cc1)C(=O)c1ccc(OCc2c(C)noc2C)cc1,inactive,
